Consider 3 molecules from patent publication US4602011A, “Antimicrobial compositions and methods of using same” (Chapman Chemical Company, priority 1982, dated 1986).

Each structure is given as a SMILES string. ≈ marks a conversion by molar mass, not a printed value.

The subject of the test is Salmonella cholerasuis (10708). Nature of the test: minimum bactericidal concentration. The following applies: for MBC: Salmonella, 24 h, read-out: Minimum bactericidal concentration.

As for `CCCS(=O)(=O)c1c(Cl)cnc(Cl)c1Cl` [G], the MBC stood at 165 µg/mL (≈ 572 µM).

Under “ppm of active ingredient”, `CCCCCCCCCCCCc1ccc(S(=O)(=O)O)cc1` [DDBSA, dodecyl benzene sulfonic acid] came in with a Minimum bactericidal concentration of 1000 ppm.

As for `Oc1c(Cl)c(Cl)c(Cl)c(Cl)c1Cl` [F], the MBC fell in the range of 250 to 500 µg/mL (≈ 939 to 1880 µM).
